According to publication PMC13083723 (Patterns, 2026):
About 190 (3.5%) of roughly 5,400 compounds showed an effect of 50% or more. The list shows a part of the results.

tested on: Vero-E6; assay: primary screen, phospholipidosis by LipidTOX staining; higher = more effect of the substance; conditions: 10 µM
Summary of the method: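 Single-concentration screen at 10 μM, with DMSO 0.1 v/v % and amiodarone 10 μM as controls. Read-out is LipidTOX Red phospholipid staining, which tolerates aldehyde fixation, in Vero-E6 cells.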

| SMILES | result_ITMP [%] |
| --- | --- |
| O=[N+]([O-])c1cc([N+](=O)[O-])c(/C=C/c2ccc(Cl)c(Cl)c2)cc1/C=C/c1ccc(Cl)c(Cl)c1 | -7.51 |
| O=c1cc(N2CCOCC2)oc2c(-c3cccc4c3sc3ccccc34)cccc12 | 1.64 |
| Nc1ncc2c(n1)CC(c1ccco1)CC2=O (stereo not drawn) | 3.12 |
| Oc1ccc2c3c1O[C@H]1c4[nH]c5c(c4C[C@@]4(O)[C@@H](C2)N(CC2CC2)CC[C@]314)C[C@@]1(O)[C@H]2Cc3ccc(O)c4c3[C@@]1(CCN2CC1CC1)[C@H]5O4 | 2.52 |
| CN(C)CCCN1c2ccccc2Sc2ccccc21 | 37.7 |
| Cc1cc(C(C)(C)C)c(O)c(C)c1CC1=NCCN1 | -4.13 |
| O=C(OCCO)c1ccccc1O | 2.99 |
| CCC(=O)O[C@@H]1CC(=O)O[C@H](C)C/C=C/C=C/[C@H](OC(C)=O)[C@H](C)C[C@H](CC=O)[C@H](O[C@@H]2O[C@H](C)[C@@H](O[C@H]3C[C@@](C)(OC(C)=O)[C@@H](OC(=O)CC)[C@H](C)O3)[C@H](N(C)C)[C@H]2O)[C@H]1OC | 7.16 |
| NS(=O)(=O)c1cc(C(=O)O)cc(N2CCCC2)c1Oc1ccccc1 | -10.1 |
| CC(=O)O[C@]1(C(C)=O)CC[C@H]2[C@@H]3C[C@H](C)C4=CC(=O)C=C[C@]4(C)[C@@]3(F)[C@@H](O)C[C@@]21C | -7.92 |
| CCCC(CCC)C(=O)NCC(N)=O | -5.65 |
| O=C(O)COc1ccc(OCCNC[C@H](O)COc2ccccc2)cc1 | -6.38 |
| CC(=O)NC1=NN(C(C)=O)C(C)(c2ccccc2)S1 (stereo not drawn) | 18.6 |
| CC(=O)OC[C@H]1O[C@@](COC(C)=O)(O[C@H]2O[C@H](COC(C)=O)[C@@H](OC(C)=O)[C@H](OC(C)=O)[C@H]2OC(C)=O)[C@@H](OC(C)=O)[C@@H]1OC(C)=O | 4.65 |
| Cc1ccc(-c2csc(NC(=O)c3ccccc3)n2)c(C)c1 | 2.34 |
| Cc1onc(-c2ccccc2)c1-c1ccc(S(N)(=O)=O)cc1 | -5.1 |
| CCN(CC)C(=S)[S-] | -6.15 |
| CC1=C(CC(=O)O)c2cc(F)ccc2/C1=C\c1ccc(S(C)=O)cc1 (stereo not drawn) | -2.21 |
| O=C1c2cccnc2OC[C@@H]2CCCN12 | -2.01 |
| CCCc1cc(=O)[nH]c(=S)[nH]1 | -3.09 |
| CCCCCCCC[N+](C)(C)Cc1ccccc1 | -1.9 |
| C[N+]1(CCCCC[N+]2(C)CCCC2)CCCC1 | 1.88 |
| C[C@H](NC(=O)C(C)(C)Oc1ccc(C(F)(F)F)cn1)[C@@H](Cc1ccc(Cl)cc1)c1cccc(C#N)c1 | 1.28 |
| O=C(Nc1ccccc1)c1cc([N+](=O)[O-])ccc1Cl | -4.43 |
| O=C(O)[C@H](Cc1c[nH]c2ccccc12)N1C(=O)c2ccccc2C1=O | -5.26 |
| C=C1C(=O)O[C@@H]2/C=C(\C)CC/C=C(\C)CC[C@@H]12 | -1.57 |

| SMILES | result_ITMP [%] |
| --- | --- |
| C[C@H](CCC(=O)O)[C@H]1CC[C@H]2[C@@H]3[C@H](O)C[C@@H]4C[C@H](O)CC[C@]4(C)[C@H]3C[C@H](O)[C@]12C | 0.2 |
| c1ccc2c(Cc3c[nH]c4ccccc34)c[nH]c2c1 | -4.8 |
| Cc1sc(N)c(C(=O)c2cccc(C(F)(F)F)c2)c1C | -2.1 |
| COc1ccc(OC)c2c(=S)c3ccccc3[nH]c12 | -1.78 |
| COCc1c(-c2ccc(NC(=O)Nc3cc(C(F)(F)F)ccc3F)c(F)c2)c2c(N)ncnn2c1CN1CCOCC1 | 0.1 |
| CCC(=O)N1CCN(c2ccc(-n3c(=O)ccc4cnc5ccc(-c6cnc7ccccc7c6)cc5c43)cc2C(F)(F)F)CC1 | -2.63 |
| CO/N=C(\C(=O)N[C@@H]1C(=O)N2C(C(=O)OCOC(=O)C(C)(C)C)=C(/C=C\c3scnc3C)CS[C@H]12)c1csc(N)n1 | 6.57 |
| Cn1cnc(-c2cc3nccc(Oc4ccc(NC(=S)NC(=O)Cc5ccccc5)cc4F)c3s2)c1 | 0.11 |
| O[C@@H](COc1cccc2ncccc12)CN1CCN([C@@H]2c3ccccc3[C@@H]3[C@H](c4ccccc42)C3(F)F)CC1 | 25.5 |
| O=c1[nH]c(=O)c2[nH]c(=O)[nH]c2[nH]1 | -1.7 |
| COc1ccccc1C(=O)Nc1cc2c(cc1N1CCCC1)n(C)c(=O)n2C | -1.52 |
| Nc1nonc1/C(=N\c1ccc(F)c(Cl)c1)NO | 0.83 |
| Cc1cc(-c2cc(OC(=O)c3ccccc3)ccc2Cl)cc2nnc(Nc3ccc(OCCN4CCCC4)cc3)nc12 | -1.87 |
| CC(=O)N(O)[C@@H]1c2cc(C#N)ccc2OC(C)(C)[C@H]1O | -6.36 |
| O=C(CCc1ccc(O)cc1)c1c(O)cc(O)cc1O[C@@H]1O[C@H](CO)[C@@H](O)[C@H](O)[C@H]1O | -8.71 |
| CC1(C)[C@@H]2CC[C@@]1(C)C(=O)C2 [R4A_0000828_001 / SPE_K15714472] | -1 |
| CCS(=O)(=O)N(C)[C@@H]1c2cc(C#N)ccc2OC(C)(C)[C@H]1O.CCS(=O)(=O)N(C)[C@H]1c2cc(C#N)ccc2OC(C)(C)[C@@H]1O (racemic) | -1.89 |
| NC[C@@H]1O[C@H](O[C@H]2[C@@H](O)[C@H](O[C@@H]3[C@@H](O)[C@H](N)C[C@H](N)[C@H]3O[C@H]3O[C@H](CN)[C@@H](O)[C@H](O)[C@H]3N)O[C@@H]2CO)[C@H](N)[C@@H](O)[C@@H]1O | -2.72 |
| CC(C)(C)NCC(O)c1cc(Cl)c(N)c(C(F)(F)F)c1 (stereo not drawn) | -1.04 |
| COC(=O)c1cccnc1 | 11.3 |
| O=C(O)CC(O)C(=O)O (stereo not drawn) | 0.86 |
| COC[C@H](NC(=O)c1cnc(C)s1)C(=O)N[C@@H](COC)C(=O)N[C@@H](Cc1ccccc1)C(=O)C1(C)CO1 (stereo partly drawn) | -1.49 |
| CCCCCCC[N+](CC)(CC)CCCCc1ccc(Cl)cc1 | 3.83 |
| CCOC(=O)C1=C[C@@H](OC(CC)CC)[C@H](NC(C)=O)[C@@H](N)C1 | -4.03 |
| C=CC(=O)Nc1cccc(C)c1Nc1ncc2cc(-c3c(Cl)c(OC)cc(OC)c3Cl)ccc2n1 | 1.86 |
